According to ChEMBL document CHEMBL4888484, “Replenishing the malaria drug discovery pipeline: Screening and hit evaluation of the MMV Hit Generation Library 1 (HGL1) against asexual blood stage Plasmodium falciparum ,using a nano luciferase reporter read-out” (2022):
About 540 (0.36%) of roughly 150,000 compounds showed an effect of 50% or more. The list shows a part of the results.

tested on: Plasmodium falciparum; assay: Primary screen in NF54 nanoGlo assay, in single point, at 2uM, 72h; a lower Z score goes with more inhibition; assay type: functional, Erythrocyte; details: timepoint 72 hour

Compound	% Inhibition [%]	Z score
CC(C)Cn1cc(NC(=O)C2(N)CCCC2)c(C(F)F)n1	-15	2.97
Cc1ccc(C)c(NS(=O)(=O)c2c(C)[nH]c(-c3nnc(C4CCC4)o3)c2C)c1	-7	0.93
COCCN1C[C@@H](C(=O)N2CCC3(CC2)Cc2cccc(c2)Oc2cccc(c2)CCNC3=O)CCC1=O	-13	1.65
CN(C)C(=O)CNC(=O)Cc1cccs1	-1	0.11
O=C(COc1ccc(Cl)cc1Cl)Nc1ccc2oc(-c3cccnc3)nc2c1	-15	2.9
COc1cccc(C(=O)N2CCC3(CC2)OC[C@@H](C(=O)NC2CC2)N3C(=O)c2ccc(F)cc2)c1	-10	1.26
O=C(CN1CCOCC1)N1C2CCC1Cn1c(nn(Cc3ccccc3)c1=O)C2 (stereo not drawn)	7	-1.21
CC(C)(C)[C@H]1CCc2oc3ccc(NS(=O)(=O)c4ccc5ccccc5c4)cc3c2C1	-1	0.24
CCOCCN(C)C(=O)Nc1ccncc1F	-5	0.6
CCOC(=O)Nc1nc(-c2ccccc2)c(C(=O)c2ccc(S(C)(=O)=O)cc2)s1	33	-1.07
Cc1oc(-c2ccc3ccccc3c2)nc1CN(C)[C@H]1CCOC1	-10	1.53
CC(C)n1cc(C2=CCN(C(=O)Nc3ccc4c(c3)OCCO4)CC2)c2cccnc21	1	-0.19
O=S(=O)(NCCc1nccs1)N1CCc2ccccc2C1	-5	0.67
NC(CCO)=NOCC(=O)Nc1cccc(C(F)(F)F)c1	-11	0.98
N#C[C@@]1(c2ccccn2)CCCN(C(=O)c2ccc(Cl)cc2F)C1	-9	0.91
CCOc1ccc(N2CCCCn3c2nc2c3c(=O)n(CCCc3ccccc3)c(=O)n2C)cc1	-11	1.29
COc1cc(C(=O)NCc2cc(C(F)(F)F)ccc2N2CCN(C)CC2)on1	-9	1.78
CC(C)C[C@@H](CNc1ncnc(N)c1Cl)N(C)C	-1	0.1
CC(C)CNC(=O)[C@@]1(OCc2cccc(Cl)c2)CC(OCc2ccc(C(F)(F)F)cc2)[C@@H]2OC(C)(C)O[C@@H]2C1 (stereo partly drawn)	-15	1.42
CCCNC(=O)CN[C@@H](C)c1cc(Br)ccc1F	-4	0.47
C=CCN1CCN(C(=O)c2csc(-c3ccc(OCc4ccc(Cl)cc4)cc3Cl)n2)CC1	8	-1.14

Compound	% Inhibition [%]	Z score
Cc1cc(C(=O)C(=O)O)c(C)n1-c1ccc2snnc2c1	-7	0.79
CN1CCC(NC(=O)C2(O)CCCC2)C1c1ccc(F)c(F)c1 (stereo not drawn)	-3	0.46
CCc1nc(C[C@H]2CN(C(=O)CN3CC4(CCCC4)CC3=O)CCO2)no1	-8	1.53
O=C1[C@@H](NS(=O)(=O)c2cccc(F)c2)CCN1c1ccccc1	-4	0.65
CC(C)(C)OC(=O)N1Cc2cc(O)ccc2C[C@H]1C(=O)NCC1CC1	-13	2.51
Cc1ccc(NC(=O)N2CCc3c(c4ccccc4n3CC3CC3)C2)cc1	-6	0.91
C=CCO[C@H]1[C@H](NC(=O)COC)c2ccccc2C12CCN(Cc1ccc(F)cc1Cl)CC2	11	-1.48
Cc1cnc(CCNC(=O)N[C@@H]2COc3ccc(F)cc3C2)c(C)c1	22	-2.81
COCc1ncc(CN2CCC[C@H]2c2nc3c(C)cccc3[nH]2)cn1	-3	0.57
N=C1C(c2nc3ccccc3s2)=C(O)CN1CC1CCOCC1	-6	0.73
Cc1ccncc1C(=O)N1CCC[C@@H]1CF	-7	0.81
CCc1nc(NC(=O)NCc2nccs2)nn1C	1	-0.19
C[C@H]1CCCCN1c1ccc(C(N)=O)cc1NC(=O)CCCn1cncn1	-17	1.48
CC(C)[C@@H]1CN(Cc2ccc(O)cc2)CCCN1CC1CC1	-2	0.34
CC(C)C(NCC(O)c1ccco1)c1ccc2c(c1)CCO2 (stereo not drawn)	4	-0.68
CNC(=O)[C@@H]1C[C@H](NCc2cc(OC)c(OC)c(OC)c2)CN1CC(c1ccccc1)c1ccccc1	54	-11.4
Cc1ncnc(N(C)Cc2ncc(Br)cn2)c1C	-3	0.47
COCCc1cc(NC(=O)N2CC(C)C3CCCCC32)n(C)n1 (stereo not drawn)	-10	1.26
c1cc(-c2nc(-c3ccc4c(c3)OCCO4)cs2)cs1	-9	0.73
CCc1nnc(-c2nnc(NCc3ccc4c(c3)OCO4)c3ccccc23)o1	1	-0.15
CC(C)CN1CCN(Cc2cn(C)nc2-c2cccc(Cl)c2)[C@@H](C)C1=O	10	-1.31

Compound	% Inhibition [%]	Z score
Cc1ccc(C)c(C2CCN(C(=O)Nc3cccn(C)c3=O)CC2)c1	-10	1.54
O=C(c1cnccn1)N1CC[C@@H]2CN(Cc3ccccc3)[C@@H]2C1	-10	1.19
Cc1cccc(Cn2c(=O)c(C(=O)N3CCOCC3)nn(-c3ccc(F)cc3)c2=O)c1	1	-0.14
Cc1nc(C)c(CNC(=O)[C@H]2CCOC2)o1	23	-2.62
Cn1c(N2CCC[C@H]2C2CCCC2)c(C#N)c(=O)n(C)c1=O	-3	0.42
Cc1cccc(-c2ccc(C(=O)NCCN3CCOCC3)n2C)c1	-7	1.19
Cc1nn(C)cc1-c1cc(-c2cn(C)nc2C)[nH]n1	-3	0.41
CC(C)NC(=O)CN1C[C@H](O)C[C@H]1c1n[nH]c(-c2ccccc2)n1	0	-0.04
O=C(Nc1cccc(-c2nnco2)c1)c1cccc(Cl)c1	-18	2.95
Cc1nc2ccccc2n1CCNc1ncc(C#N)cc1Cl	-12	1.4
CCC(C)N(CC(=O)N1CCc2sccc2C1c1ccc(C(C)(C)C)cc1)C(=O)c1ccc(-c2ccccc2)cc1 (stereo not drawn)	-7	0.74
CN(C)C(=O)c1cccc(Br)c1Cl	-18	2.57
CCc1ccc(CN2CCC(n3nccc3NC(C)=O)CC2)o1	-20	1.75
COc1cccc(C(=O)NCC(=O)N2CCCN(Cc3noc(C)n3)CC2)c1	-10	1.66
O=C(Nc1ccc2c(c1)OCO2)N1CCC(c2nnc(-c3ccco3)o2)CC1	-9	1.62
Cc1nnc(CN2CC[C@](C)(O)[C@H](C)C2)n1C	-5	0.45
C=CCN(Cc1ccc(F)cc1)Cc1cc(C)nn1C	-3	0.42
CC(=O)N1CC(C(=O)Nc2cccnc2)C1	-2	0.23
O=C(O)c1cccc(C(=O)N2CCC(c3ccsc3)CC2)c1	-12	1.53
O=C(CNS(=O)(=O)c1ccccc1)NCc1ccco1	1	-0.13
N#Cc1ccc(N2CCC[C@H]2C(=O)NC2CC2)c(Br)c1	-19	2.96

Compound	% Inhibition [%]	Z score
C[C@H]1CC=CC[C@@H]1NC(=O)c1cnn2ccc(N)cc12	0	-0.01
Oc1ccc(-c2nc(-c3ccc4c(c3)OCCCO4)cs2)cc1	-9	1.35
N#CCC(=O)NC1CC1(F)c1ccccc1 (stereo not drawn)	-9	0.86
CCC1CCCCC1N(C)c1ccc(C#N)cn1 (stereo not drawn)	2	-0.29
CC(C)(C)[C@@H]1CNC(=O)CN1S(=O)(=O)c1cnc2ccccc2c1	-14	1.64
CCOc1ccc(-c2c[nH]c(C(=O)N3CCCCC3)c2)cc1	-10	1.47
COc1ccc(S(=O)(=O)N2CCOCC2)cc1NC(=O)CCCOc1ccccc1	-6	0.93
CCc1ccc(S(=O)(=O)n2c(=O)n(S(=O)(=O)c3ccc(CC)cc3)c3ccccc32)cc1	-8	1.09
O=C(CCCc1ccccc1)Nc1nccs1	-17	1.99
COc1ccc(CN2CCC3(CC2)CCN(C(=O)C(C)C)CC3)cc1C	2	-0.3
Cn1ncc(C(=O)N2CCN(c3ccccc3)CC2)c1C1CCN(C(=O)OC(C)(C)C)CC1	-14	2.16
CC[C@H](NCC(=O)NC(C)C)c1cccc(Cl)c1	-7	1.01
CC(C)(C)c1nc(CN2CC[C@H](c3ccccc3)C2)no1	-6	0.78
c1cc2cn[nH]c2cc1CN1CCc2[nH]ncc2C1	-2	0.3
c1cc(-c2nc(C3CCCCC3)no2)cc(-c2ncc[nH]2)n1	-28	4.45
O=C(Nc1cccc(F)c1)N(Cc1ccco1)C[C@H]1CCCO1	-10	1.55
CCn1cnnc1CN(C)c1ncc(C)c(-c2ncnn2C)n1	2	-0.34
O=C(CCC1CCCCC1)N1CCN(C(=O)[C@@H]2CCCc3cccnc32)CC1	0	0
CC(=Cc1cc(F)c(F)cc1F)c1cnccn1	-3	0.35
CC[C@H](NC(=O)c1sccc1Cl)C1CCOCC1	0	-0.01
CC(C)C1OCCCC1CNC(=O)Nc1ccc[n+]([O-])c1 (stereo not drawn)	-10	1.72
